# The supplement of paper PMC11417369
# This is one part of the list.
# Test system: PfSIP2 AP2 domain 1 (GST-tagged)
# Test: gcPBM binding intensity (ln(normalized median fluorescence intensity)); higher = stronger DNA binding
# Summary of the method: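 The highest Masliner-normalised natural-log median intensity across replicate spots of either probe orientation is reported as binding intensity. GST-tagged P. falciparum DNA-binding domains expressed in E. coli were applied for 1 h to an Agilent 4 × 180k array of primer-extended double-stranded 36-bp intergenic genomic probes plus negative controls, and bound protein was detected with Alexa488 anti-GST antibody and scanned at 488 nm.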
row,Sequence,gcPBM binding intensity (ln)
1,AAGAAAAAATAAAAAATAAAAATAAAAAATAAAAAA [TGCATGCA_negctrl_site274],6.66
2,ATATATTTACATATTACACACAATATTGTACACATA [CACACA_site6564],7.06
3,TTAGAGAAACAAAATTGTACATTATAAATTTGCCTT [XGTACX_site440],6.76
4,CAAGAAATTTACAAACGTACATATGTTCATACAAGG [XGTACX_site2372],6.96
5,TATTTGAAAGCCAATTGTACTTTAGTTTTTGAAACA [XGTACX_site5542],6.96
6,CTATTTCAGAAACACACACACACAAACAAACATATA [CACACA_site978],7.17
7,TTTCTTTTTAAATAGGTGCATATTTTTATAAATATA,11
8,TTAAATATAATATTATGTACTAAATATTTTTTTATT [XGTACX_site6121],6.87
9,TTTATATATATTCTCACACACTTTTTATTTTAACAA [CACACA_site4534],7.05
10,ATAAATTTCCTCGTTTTTTTTTTTTTTTTTTTTTTT [CACACA_negctrl_site1173],8.43
11,AAAAATATTTATAACACACACATAATATTTATATAT [CACACA_site7238],7.09
12,AGATGATATACGTAAACACACAAATAAAAAAAATTT [CACACA_site3327],7.06
13,ACAAAAAAATAAGGTGCACACAAAAAAAAAAAAAAA [CACACA_site8171],12
14,GAGTTCAGTTTTTGTTGTACTTATTCTTAATATGTC [XGTACX_site6083],7.15
15,TTTTTTTTTTTTTGATGTACTTATTTAATAAGATAT [XGTACX_site376],6.9
16,TATATGGCATATTTCACACACACATAATGAATATTA [CACACA_site9181],6.97
17,ATATAGCATATAATTTGTACACAGGCCATACCTGAA [XGTACX_site533],6.85
18,ATCCAAAAAATTAATGCATGCGCAAAAAATAGCTTA [TGCATGCA_site615],6.67
19,AAAAAAAAAACATACACACACATATATATATATATG [CACACA_site1586],7.65
20,TGTCCTTATTTGCACACACACATATAAGAAATTTAA [CACACA_site7485],8.18
21,TTTGTTTTATCTTATATGCACACGATAAAAAAAAAA [CACACA_site2673],8.43
22,ATTATATGTAACACGTGTACCTATTTATGTATGCTT [XGTACX_site5748],7.16
23,AATATACAAAATATCACACATATAAAATAATATATA [CACACA_site6067],6.96

row,Sequence,gcPBM binding intensity (ln)
1,GATATATAAACATATACACACAAAAACATATTTATA [CACACA_site6734],6.98
2,TGATAATTTCATTTTGCATGTGACAATACAAGATGT [TGCATGCA_site203],6.93
3,AATGGTTCAACGTAGTGTACGTAATAAATAATAAAT [XGTACX_site8668],6.98
4,AAATAATATGTAATCAAATTCACCAAACGAAAAAAA [TGCATGCA_negctrl_site33],7
5,TACATATAAAAGTACACACACACACCCATATATATA [CACACA_site941],7.65
6,TAAAATAAATTGTGCACACATATTTATAAATATGAA [CACACA_site2331],9.66
7,ATGGACTTTTATAGTTGTACATACTATGAGAACTTT [XGTACX_site2800],6.95
8,TATTGCCCGAAACACACACACATATATATATATATA [CACACA_site2491],9.8
9,GTTTATCACAGCCACGCACACATAATATATGTATAT [CACACA_site3669],7.15
10,TATAATATTTACGACAGTACATATATATATATGTAT [XGTACX_site8332],7.33
11,AAATAATTTGTTGACACACACACACCCATACATATA [CACACA_site2285],7.12
12,TAACTCTATTTTTTTGCATGCTGAAGCTATGAGTTT [TGCATGCA_site821],6.72
13,TGACATAATGTGTGTAGTACATATATCGTTATTTGA [XGTACX_site5152],6.86
14,TGAATAAATATAAAAGGTACACATATAAATATATAT [XGTACX_site6349],7.11
15,TATGTAGGTAAAAATTGTACTTTTTTTTTAATATTT [XGTACX_site2303],6.83
16,TATATATTTCATAATACACACGAAAAAAAAAAAAAA [CACACA_site8972],6.96
17,ATAATATTATGTGTGAATATATCTTTAAAAAGGATA [GTGCAC_negctrl_site15],6.86
18,ATAAAAATAAAATAAGGTACAGACGAAAAAATTGAA [XGTACX_site5097],7.3
19,CACAAAAATAGACACACACACATATAAATAAATATA [CACACA_site6598],7.11
20,ATATATATATATATATGTACACATATTATAAAAAAA [XGTACX_site8644],9.2
21,TATATATATAAATACACACACACCGTCCGTGTTAAA [CACACA_site5623],7.91
22,ATATATATTATATAGTGTACCTATGTATAATAATAT [XGTACX_site1683],7.16
23,ATATATTATAATGATACACACAAGAAATAAAATTAC [CACACA_site3095],7.12

row,Sequence,gcPBM binding intensity (ln)
1,TTCTAGAAAACTGATCGTACAAATAAATATAGACAC [XGTACX_site2808],7.73
2,TATAAAATAAAAGTAAATATATATATATATATATAT [TGCATGCA_negctrl_site208],9.31
3,AAAATAGGGATCACGTGTACATATAAAGTGACATAC [XGTACX_site8190],7.37
4,AATGCATACACATATTGTACTAAGCCATACAACACA [XGTACX_site305],7.04
5,ATATATAATATTTATTGTACTATTTTATTTTTATAA [XGTACX_site705],7.07
6,TTTGACATACCTCTTGCATGTGAAAAACTTTTCGCT [TGCATGCA_site364],6.69
7,AAAAAAGACCATGTTAGTACATAAGATTTTTTTCAT [XGTACX_site4298],6.77
8,AATACGTTATTATTTTGTACATATAAATAATAAGTT [XGTACX_site815],6.87
9,ATTTCTATTTGGGTTAGTACATATAAGTCTATTTTC [XGTACX_site3234],7.08
10,AACATACGAATATTCACACATAAATATATAAATCGC [CACACA_site4672],7.04
11,ACTCTTTTAACGCAAAGTACTTTTTAAAATATTTCG [XGTACX_site7534],7.47
12,TATTATATATATATCACACATATATTCATGTACATA [CACACA_site5432],7.24
13,TTTTTTTTTTCTTTTTGTACATATTCATAACAAGTA [XGTACX_site2784],6.83
14,TATATAATCGAGTGCACACACAAAAAAAAAGTGAAC [CACACA_site1483],10.8
15,TTAAAAAGATGTCACTGTACATAAAACATAAAATAT [XGTACX_site2886],7.14
16,TAAACAGACATATAAACACACATACATACATACATA [CACACA_site7215],7.14
17,TTTCATGACAATGTTTGTACATAATAAAATATATTT [XGTACX_site7039],7.02
18,GAAGAGACTTAGAAAACACACATACATAAGATAATT [CACACA_site5333],6.8
19,AAAAAAAAAAAAAAAACACACATAAAACTATAATAA [CACACA_site7758],7.62
20,ATATGTATCTCATCGTGTACATGTATATAATATATA [XGTACX_site4139],7.13
21,ATATAGTAAAGTTATACACACATGAATTTTCCCATG [CACACA_site6923],6.7
22,TTAGAAAAATTATATATACACACTTATATTTATATA [CACACA_site2821],6.62
23,ATATATCAAAATAATTGTACAAATTTTATATAATTT [XGTACX_site7249],6.96

row,Sequence,gcPBM binding intensity (ln)
1,AATATAAATGTGATTACACACAACACATTTAAATGT [CACACA_site1212],6.79
2,GTCATATATAATTGTTGTACATTTTTATAATTATGT [XGTACX_site8091],7.21
3,AATTTTCTTAAAATTTGTACGTATATATTTAATATA [XGTACX_site3906],7.09
4,TATATATACTATAACACACATACACCCAAAAAAAAA [CACACA_site536],7.29
5,AAAAAATTATATTATGCACACATCGTTATATATATA [CACACA_site1201],8.28
6,CTTATACATATATATAGTACATATATCATTTTTATG [XGTACX_site4462],7.21
7,AAAAATAAATTTATATATTACAAGAACAAATATAGT [XGTACX_negctrl_site567],7.35
8,GAATAAATAAGATACGTACACACATATACAAAATAT [CACACA_site3660],7.22
9,AAAAGGAAAGGAAAGGGTACAATCCTATTATATTAT [XGTACX_site8652],6.7
10,ATAATATAAACGTATACACACAAGAGAAGCATAAAG [CACACA_site2889],7.27
11,TTTTTTTAAAAAAAGGGTACATATATATATTTTTCT [XGTACX_site1066],7.07
12,GTATTACATGAGGACACACACAAAAAAAATATATAT [CACACA_site769],7.26
13,TAATTATTTTAAAAAGTGCATTAAAAGATATTAAAT [GTGCAC_site9694],8.22
14,TTATTATAAAAATGTAGTACAATACTTTTTTTTTTT [XGTACX_site732],7.2
15,TATATATCTATAAACACACACCAAAATTTGTGCTTT [CACACA_site7448],7.09
16,AAATAAAAAGAAAAGAAAAAGAAAATAAAAAGAGAA [XGTACX_negctrl_site14],6.6
17,ATAAAATGAACAAACACACACACATATATTTATATA [CACACA_site7181],6.88
18,ATATATATATATTATATGCACACGTTAAAATTTCAT [CACACA_site709],8.78
19,ATATACTTTAAAGGTTAAGAAAGAAAAAAAAAAAAA [CACACA_negctrl_site956],6.97
20,ACATTATATTTGGACTGTACTAATATATTGTTATAT [XGTACX_site5573],7.23
